# Measured values as given in PubChem BioAssay AID686978 (National Center for Advancing Translational Sciences (NCATS), 2013).
# About 64,000 (15%) of roughly 420,000 compounds were called active. Inconclusive means that the source gave no clear call. Such entries were picked first, then a sample of the others. Calls follow the shape of the dose curve; as a rule, active = well fitted inhibition curve with a large enough effect; inconclusive = small, poorly fitted or top-dose-only effect; inactive = flat fitted curve, though single readings scatter. No potency is given beside an inconclusive call; the fits are too rough.
# Test: qHTS for Inhibitors of human tyrosyl-DNA phosphodiesterase 1 (TDP1): qHTS in cells in absence of CPT; also: nearly all actives have a fitted effect of over 55% in size
# Details: DT40 Tdp1-/- hTDP1 cells, no CPT, ATP luminescence, 48 h; series mostly up to 46.2 µM
# Outline: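 Stably hTDP1-transfected Tdp1-null chicken DT40 cells were treated with library compounds minus camptothecin and grown for at least 48 hr at 37 °C, after which cellular ATP was quantified by luminescence.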
# Potency is read from the fitted curve at half-maximal effect; tags tell the direction and shape of the fitted curve.
row,Compound,Potency
1,O=C(CCNC(=O)c1ccco1)NCCc1ccc(Cl)cc1,inactive
2,CCOC(=O)N1CCN(C(=O)CSCc2nc(-c3ccccc3F)oc2C)CC1,"inconclusive [inhibitor, single point]"
3,Cc1ccc(C)c(N2CCN(c3ccc4cc(S(=O)(=O)N5CCCCC5)ccc4n3)CC2)c1,"inconclusive [inhibitor, partial curve]"
4,CCN(C(=O)C(NS(=O)(=O)c1ccc(Br)s1)c1ccccc1)c1ccc(C)c(C)c1 (stereo not drawn),"inconclusive [inhibitor, single point]"
5,COc1ccc(S(=O)(=O)N2CCN(CCc3ccccc3)CC2)c(OC)c1,"inconclusive [inhibitor, single point]"
6,O=c1cc(/C=C/c2c(F)cccc2Cl)[nH]c2ccccc12,"inconclusive [inhibitor, partial curve, poor fit]"
7,CC(C)C(=O)N1CCC1(C)C(=O)NCc1ccc(C(C)(C)C)cc1 (stereo not drawn),"inconclusive [inhibitor, partial curve]"
8,COCc1cc(C)nc2sc(C(=O)Nc3ccccc3Br)c(N)c12,inactive
9,CCOc1ccccc1CNC(=O)CCCC(=O)n1nc(C)c2ccccc21,"inconclusive [inhibitor, partial curve]"
10,CN(C(=O)c1ccoc1)c1ccc2ccccc2c1,"inconclusive [inhibitor, partial curve]"
11,CN(C)c1ccc(/C=C2\SC(=O)N(CCc3nnc(N)s3)C2=O)cc1,"inconclusive [inhibitor, single point]"
12,O=c1cc(CSc2nnnn2-c2ccccc2)nc(Nc2ccc(F)cc2)[nH]1,"inconclusive [inhibitor, partial curve]"
13,COC(=O)c1nn(-c2c(C)n(C)n(-c3ccccc3)c2=O)cc1O,inactive
14,CN(C(=O)c1cccc(NC(=O)Cc2ccc(NC(=O)C3CCN(S(=O)(=O)c4cccc([N+](=O)[O-])c4)CC3)cc2)c1)C1CCCCC1,"inconclusive [inhibitor, partial curve]"
15,CCCCCCNC(=O)c1cc(-c2ccco2)nc2ccccc12,"inconclusive [inhibitor, single point]"
16,CCCCOc1ccc(N(CC(=O)NCCOC)C(=O)CCC(=O)Nc2ccccn2)cc1,inactive
17,COc1cccc(NC(=S)NCc2cccs2)c1,"inconclusive [inhibitor, single point]"
18,COc1cccc(C(O)c2nc(-c3cnn(C)c3)cs2)c1 (stereo not drawn),"inconclusive [inhibitor, partial curve]"
19,COC(=O)c1ccccc1NC(=O)C(Cc1ccccc1)N1Cc2ccccc2C1=O (stereo not drawn),"inconclusive [inhibitor, single point]"
20,O=C(Cc1ccc(Cl)cc1)Nc1ccc2oc(-c3ccc(F)cc3)nc2c1,"inconclusive [inhibitor, single point]"
21,CCn1cc(CN2CCC(n3nccc3NC(=O)Cc3ccccc3)CC2)c(C)n1,inactive
22,OCC1(CCCc2ccccc2)CCN(Cc2ccc(F)cc2)CC1,"inconclusive [inhibitor, single point]"
23,COc1ccc(C)cc1NC(=O)Cn1cc(S(=O)(=O)N2CCC(C)CC2)c2ccccc2c1=O,"inconclusive [inhibitor, partial curve, poor fit]"
24,O=C(COc1ccc(Cl)cc1Cl)NC1CC1,"inconclusive [inhibitor, single point]"
25,Cc1ccc2c(c1)c1c(n2CC(O)Cn2c(C)nc3ccccc32)C(=O)CCC1 (stereo not drawn),active: 18.4 µM

row,Compound,Potency
1,COc1ccc(Cl)cc1C(=O)N1CCC2(CC1)CC(=O)c1ccccc1O2,"inconclusive [inhibitor, single point]"
2,CCCC(=O)NC(c1ccccc1Cl)c1c(O)ccc2ccccc12 (stereo not drawn),"inconclusive [inhibitor, single point]"
3,COc1ccc(C(O)c2ncc(-c3cccc4ccccc34)[nH]2)cc1F (stereo not drawn),"inconclusive [inhibitor, single point]"
4,CCCCNC(=O)C(CC)Sc1nc2sc(C(=O)OC)c(C)c2c(=O)n1N (stereo not drawn),"inconclusive [inhibitor, single point]"
5,CCC(=O)N1c2ccccc2CC1C(=O)NCCN1CCN(c2cc(Cl)ccc2C)CC1 (stereo not drawn),"inconclusive [inhibitor, single point]"
6,COc1ccccc1NC(=O)/C=C/C(N)=O,active: 2.91 µM
7,O=C(O)CSc1nc(-c2ccccc2)nc2c1oc1ccccc12,inactive
8,NC(COCc1ccccc1)c1csc(Nc2ccc(C(=O)NCCO)cc2)n1 (stereo not drawn),"inconclusive [inhibitor, single point]"
9,O=C(Nc1ccc(OC(F)F)c(Cl)c1)c1ccccn1,"inconclusive [inhibitor, single point]"
10,CCOc1ccc(NC(=O)c2c(NCc3cc(OC)c(OC)cc3OC)sc3c2CCCC3)cc1,"inconclusive [inhibitor, single point]"
11,COc1ccccc1NS(=O)(=O)c1cccc(C(=O)NNC(=O)c2ccc(O)c(Cl)c2)c1,inactive
12,CCn1c(SCC(=O)OC)nnc1-c1ccccc1,inactive
13,CN(CC(=O)Nc1ccccc1Br)C(=O)c1ccccc1Sc1ccccc1C#N,"inconclusive [inhibitor, single point]"
14,CCOC(=O)/C=c1\s/c(=C\c2ccc(C)cc2)c(=O)n1CC(=O)NCc1ccco1,"inconclusive [inhibitor, partial curve]"
15,CCOc1ccc(NS(=O)(=O)c2ccc(OCC(=O)NCCCOC)cc2)cc1,inactive
16,Clc1ccccc1-c1nn2c(COc3ccccc3)nnc2s1,inactive
17,CCOC(=O)C1(C)CCCN1C(=O)c1ccc(OC)cc1 (stereo not drawn),inactive
18,Cc1ccc2nc(Nc3nc(-c4ccccc4)cc(=O)[nH]3)nc(C)c2c1,active: 8.2 µM
19,O=C(C(=O)N1CCC(Cc2ccccc2)CC1)c1cccc(Br)c1,"inconclusive [inhibitor, single point]"
20,Cn1cccc1C(=O)NCc1ccc(S(N)(=O)=O)cc1,inactive
21,CC(=O)Nc1ccc(NC(=O)COc2cccc3ccccc23)cc1,active: 8.2 µM
22,COc1ccc(N2CCN(C(=O)c3cccc(Br)c3)CC2)c([N+](=O)[O-])c1,active: 16.4 µM
23,COc1ccc(CCNC(=O)Cn2c(=O)nc(-c3ccccc3)c3cc(Cl)ccc32)cc1OC,"inconclusive [inhibitor, single point]"
24,Cc1c(C(C)CCCO)oc(=O)c2c1Oc1c(C)c(C(C)C[C@@H](C)O)oc(=O)c1C2 (stereo partly drawn),"inconclusive [inhibitor, single point]"
25,COc1cccc(C(=O)NCC2Cc3cccc(-c4ncccn4)c3O2)c1OC (stereo not drawn),"inconclusive [inhibitor, single point]"

row,Compound,Potency
1,CN(CCCNC(=O)c1cccc(N2CCCC2=O)c1)c1ccccc1,"inconclusive [inhibitor, partial curve]"
2,Cc1ccc(C(=O)N2CCC(N3CCC(C(=O)N4CCOCC4)CC3)CC2)cc1,inactive
3,CC[N+](C)(CC)CC(=O)Nc1c(C)cccc1C,inactive
4,O=S(=O)(c1ccccc1)n1nc(-c2ccc(Cl)cc2)nc1NCc1ccccc1,active: 16.4 µM
5,O=C1N/C(=N/N=C/c2ccccc2)SC1(c1ccccc1)c1ccccc1,"inconclusive [inhibitor, single point]"
6,CN(C)S(=O)(=O)c1cccc(NC(=O)c2ccc(COc3ccccc3)cc2)c1,active: 6.51 µM
7,COc1ccc(NC(=O)/C=C/c2cc(Br)ccc2OC)cc1,active: 20.6 µM
8,O=[N+]([O-])c1cc(/C=N/Nc2nc3ccccc3[nH]2)c(O)cc1O,active: 4.61 µM
9,Cc1ccc(NC(NC(=O)c2cccs2)C(Cl)(Cl)Cl)cc1 (stereo not drawn),"inconclusive [inhibitor, partial curve]"
10,CCCn1c(C)cc(C(=O)CN2C(=O)c3ccccc3S2(=O)=O)c1C,active: 9.2 µM
11,COc1cccc(CC(=O)Nc2c(C(=O)N3CCN(c4ccccc4F)CC3)oc3ccccc23)c1,active: 4.61 µM
12,CCN(CC)Cc1cc(O)c(CN(CC)CC)cc1O,active: 4.11 µM
13,COC(=O)c1ccc(S(=O)(=O)N2CCc3ccccc32)cc1,"inconclusive [inhibitor, single point]"
14,CCOC(=O)C1C(=O)Nc2nc3ccccc3n2C1C(C)C (stereo not drawn),inactive
15,Cc1cc(C)c2c(=O)c3c(oc2c1)C(=O)N(CCCOC(C)C)C3c1ccccc1F (stereo not drawn),"inconclusive [inhibitor, single point]"
16,O=[N+]([O-])c1ccc(Nc2nc(Cl)nc(NCCO)n2)cc1,inactive
17,Cc1ccccc1C1=N/C(=C/c2cccnc2)C(=O)O1,inactive
18,CCC1Oc2ccccc2N(CC(=O)NCCCN2CCOCC2)C1=O (stereo not drawn),inactive
19,CC1CCCC(NC(=O)CSC2CCCCC2)C1C (stereo not drawn),"inconclusive [inhibitor, single point]"
20,C=CC(=O)Nc1cccc(Oc2cc(Cl)nc3[nH]ccc23)c1,"inconclusive [inhibitor, single point]"
21,COc1cccc(OCC(=O)N2CCC3(CC2)CC(=O)c2ccccc2O3)c1,"inconclusive [inhibitor, partial curve]"
22,CC1=[N+](C)c2ccc3ccccc3c2C1(C)C,active: 2.31 µM
23,Cc1cc(C)cc(Cn2c3ccc(NC(=O)NCc4ccc(F)cc4)cc3c(=O)n2C)c1,"inconclusive [inhibitor, single point]"
